# From a collection of fitness landscapes (doi:10.1016/j.celrep.2020.107928)
# Whole data set: some 81,000 sequences, median “one-hybrid fitness for binding parS DNA” near -0.17, cut for the highest 2% near 0.51. The list shows a part of the results.
# B1: Caulobacter ParB omega fusion; a variant is named by its letters at X, in order, B8GW30 (parent)
# chain: MESVVVGEPGMSEGRRGLGRGLSALLGEVDAAPAQAPGEQLGGSREAPIEILQRNPDQPRRTFREEDLEDLSNSIREKGVLQPILVRPSPDTAGEYQIVAGERAWRAAQRAGLKTVPIMVRELDDLAVLEIGIIENVQRADLNVLEEALSYKVLMEKFERTQENIAQTIGKSXSHVANXMRLLXLPDEVQSYLVSGELTAXHARAIAAAADPVALAKQIIEGGLSVRETEALARKAPNLSAGKSKGGRPPRVKDTDTQALESDLSSVLGLDVSIDHRGSTGTLTITYATLEQLDDLCNRLTRGI
# Variants of: B1
# Test: one-hybrid fitness for binding parS DNA (scaled: cognate 1, non-cognate 0); higher = stronger binding
# Conditions: with parS DNA site
# Method in brief: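 Bacterial one-hybrid selection in E. coli USO rpoZ- hisB- pyrF- with a HIS3 reporter carrying the site 19 bp from the promoter, screening Caulobacter ParB libraries with four specificity codons randomised (NNS). Cells grew 48 hours at 37°C on M9-minus-histidine plus 0.1 mM IPTG and 5 mM 3-AT. Plasmids before and after selection were Illumina-sequenced, three replicate libraries pooled, and variants under 10 reads dropped. Fitness is the log change in variant-to-wild-type read ratio, rescaled to cognate 1, non-cognate 0.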
row,Variant,one-hybrid fitness for binding parS DNA
1,FKTI,≤ 0.2
2,DREE,≤ 0.2
3,GIFG,≤ 0.2
4,NYMG,≤ 0.2
5,SVKG,≤ 0.2
6,FGYC,≤ 0.2
7,TLHE,≤ 0.2
8,LNQQ,≤ 0.2
9,HYRS,≤ 0.2
10,PWPR,≤ 0.2
11,KSSH,≤ 0.2
12,QEAV,≤ 0.2
13,QLGP,≤ 0.2
14,VAVV,≤ 0.2
15,KNGC,≤ 0.2
16,TRKW,≤ 0.2
17,PSAS,≤ 0.2
18,HHGA,≤ 0.2
19,GWLR,≤ 0.2
20,HGSV,≤ 0.2
21,STSF,≤ 0.2
22,RFQL,≤ 0.2
23,RGMS,0.672
24,RMTI,≤ 0.2
25,FWPS,≤ 0.2
26,FASR,≤ 0.2

row,Variant,one-hybrid fitness for binding parS DNA
1,YMPV,≤ 0.2
2,YWTT,≤ 0.2
3,AMCC,≤ 0.2
4,HMIT,≤ 0.2
5,TKHA,≤ 0.2
6,NIYR,≤ 0.2
7,MFLM,≤ 0.2
8,CHCG,≤ 0.2
9,TFPP,≤ 0.2
10,TVLR,≤ 0.2
11,HFIG,≤ 0.2
12,QFSY,≤ 0.2
13,YSDR,≤ 0.2
14,WWES,≤ 0.2
15,LTYY,≤ 0.2
16,AHYL,≤ 0.2
17,VWPP,≤ 0.2
18,VLRY,≤ 0.2
19,DDAR,≤ 0.2
20,SAAR,≤ 0.2
21,NCCL,≤ 0.2
22,LEAV,≤ 0.2
23,PSFW,≤ 0.2
24,KSVG,≤ 0.2
25,VKLW,≤ 0.2
26,GSIL,≤ 0.2

row,Variant,one-hybrid fitness for binding parS DNA
1,THGR,≤ 0.2
2,VSGF,≤ 0.2
3,TKWY,≤ 0.2
4,PRHF,≤ 0.2
5,LMMA,≤ 0.2
6,SDKS,≤ 0.2
7,TTYI,≤ 0.2
8,NALW,≤ 0.2
9,KYQA,≤ 0.2
10,HEVS,≤ 0.2
11,EYLY,≤ 0.2
12,QFDR,≤ 0.2
13,RLGS,0.981
14,TAMT,≤ 0.2
15,GLKL,≤ 0.2
16,LTHR,≤ 0.2
17,RIRQ,≤ 0.2
18,TLME,≤ 0.2
19,PYRR,≤ 0.2
20,MPTL,≤ 0.2
21,MPLD,≤ 0.2
22,KRQQ,≤ 0.2
23,LIRC,≤ 0.2
24,PVLE,≤ 0.2
25,HFKS,≤ 0.2
26,SHME,≤ 0.2

row,Variant,one-hybrid fitness for binding parS DNA
1,QGVH,≤ 0.2
2,YLPV,≤ 0.2
3,VALE,≤ 0.2
4,PEAP,≤ 0.2
5,KRDG,≤ 0.2
6,TRTP,≤ 0.2
7,VLPF,≤ 0.2
8,CCKS,≤ 0.2
9,VLFL,≤ 0.2
10,SVEI,≤ 0.2
11,ETIH,≤ 0.2
12,HNVS,≤ 0.2
13,NIDH,≤ 0.2
14,AHWC,≤ 0.2
15,GIDF,≤ 0.2
16,PYNA,≤ 0.2
17,MKCF,≤ 0.2
18,WGQC,≤ 0.2
19,RLQG,1.01
20,QPFR,≤ 0.2
21,KELR,≤ 0.2
22,YVAM,≤ 0.2
23,SPQV,≤ 0.2
24,PNCG,≤ 0.2
25,QWGA,≤ 0.2
26,YTPS,≤ 0.2

row,Variant,one-hybrid fitness for binding parS DNA
1,QPNR,≤ 0.2
2,FVIE,≤ 0.2
3,HHLT,≤ 0.2
4,TGCT,≤ 0.2
5,YRLV,≤ 0.2
6,WRSI,≤ 0.2
7,KFPI,≤ 0.2
8,IISE,≤ 0.2
9,YDLE,≤ 0.2
10,SPIY,≤ 0.2
11,MQTK,≤ 0.2
12,ESRR,≤ 0.2
13,WITF,≤ 0.2
14,ATYK,≤ 0.2
15,QWTN,≤ 0.2
16,AQNL,≤ 0.2
17,VNTQ,≤ 0.2
18,LADY,≤ 0.2
19,INRI,≤ 0.2
20,QNRD,≤ 0.2
21,QYWA,≤ 0.2
22,FEDR,≤ 0.2
23,KRVN,≤ 0.2
24,SFNY,≤ 0.2
25,PCRG,≤ 0.2
26,TYQM,≤ 0.2

row,Variant,one-hybrid fitness for binding parS DNA
1,MWEI,≤ 0.2
2,RRYC,0.63
3,QSCA,≤ 0.2
4,YVVR,≤ 0.2
5,WTTC,≤ 0.2
6,RGRA,0.496
7,QWSS,≤ 0.2
8,QNAY,≤ 0.2
9,RHKF,0.255
10,LLPW,≤ 0.2
11,LIVM,≤ 0.2
12,CRSH,≤ 0.2
13,MARF,≤ 0.2
14,IIMT,≤ 0.2
15,PDDY,≤ 0.2
16,QREP,≤ 0.2
17,FLVY,≤ 0.2
18,RRPV,≤ 0.2
19,DHRS,≤ 0.2
20,YPRI,≤ 0.2
21,QKWL,≤ 0.2
22,PTSH,≤ 0.2
23,TLEV,≤ 0.2
